# The list shows a part of the results.
# B1: CvGal2 (Crassostrea virginica) (protein)
# chain: MGSSHHHHHHSSGLVPRGSHMRIREAGKRKDTTKVYQIPDGLFPGQQVMLRGRVPWGSKSFSINFSATPRMGEGDILFHLNPRPSEGVCIRNALLNGSWGAEEKWQPYFPFDDGRSFSVKIEVTNDAFRTFVNGRPFVDFLHRTDFRAGKYLTLREGAEYYDVIFQSKPNIPLTTAIHNGMRIGKTIRIRGMCTAQDGFAINFNDNRNNIYFHFNARPAQRTVVRNSYFGSWGNEETAISKEFPFYPFLYFYASFVCMEDKFAVYVNDEHFIDFAHRGNPNNISVLQIKGSVNVLDTECLEPMGEDAMTEVDSGLENGDLFVLNGLMTERGKTFAVNFLNGFTENDDIALHFNPRKSTGEVVLNSRYGGAWQSEEKVALPGVFWSNRPLQVKVETKRNKFKIYVNGVDLAKYKIRGNVEDVHAVQVKGDVFLLETLLLKRLMKPVWERLTGGIRPGTWVTLQGTPKKNWQQFVVNFALDDTLDGDIAFHFNVRRGARQVVRNHRQSGAWGREETVTPFFAFDSEATFEIVFFVKEEKFLIYFNGKLFFEFVHRVPVERITHIYMDGDCNFYEPEVVI
# Key:
# Test in all cases: glycan array binding signal (z-score within array); higher = stronger binding
# Details in all cases: glycan notation: IUPAC condensed, linker removed
# GalNAc(b1-4)GlcNAc = molecular target: GalNAc(b1-4)GlcNAc
# Outline: (§1)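 Glycan array binding is given as a within-array Z-score, which can be read as non-binding when negative. The arrays, 3228 of them, came from the Consortium for Functional Glycomics database and were retained only where the protein sequence was available. Z-scores were averaged across arrays of the same protein sequence at different concentrations or buffers and across linkers.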
# [1] = molecular target: GalNAc(b1-4)GlcNAc(b1-2)Man
# Outline: as §1
# [2] = molecular target: GalNAc(b1-4)GlcNAc(b1-2)Man(a1-3)[GalNAc(b1-4)GlcNAc(b1-2)Man(a1-6)]Man(b1-4)GlcNAc(b1-4)GlcNAc
# Outline: as §1
# [3] = molecular target: GalNAc(b1-4)GlcNAc(b1-3)GalNAc(b1-4)GlcNAc
# Outline: as §1
# GalNAc(b1-4)GlcNAc6S = molecular target: GalNAc(b1-4)GlcNAc6S
# Outline: as §1
# GalNAc(b1-6)GalNAc = molecular target: GalNAc(b1-6)GalNAc
# Outline: as §1
# GalNAc3S(b1-4)GlcNAc = molecular target: GalNAc3S(b1-4)GlcNAc
# Outline: as §1
# GalNAc3S(b1-4)GlcNAc3S = molecular target: GalNAc3S(b1-4)GlcNAc3S
# Outline: as §1
# [4] = molecular target: GalNAc3S(b1-4)[Fuc(a1-3)]GlcNAc
# Outline: as §1
# GalNAc4S6S(b1-4)GlcNAc = molecular target: GalNAc4S6S(b1-4)GlcNAc
# Outline: as §1
# GalNAc6S(b1-4)GlcNAc = molecular target: GalNAc6S(b1-4)GlcNAc
# Outline: as §1
# Glc(a1-4)Glc = molecular target: Glc(a1-4)Glc
# Outline: as §1
# [5] = molecular target: Glc(a1-4)Glc(a1-4)Glc(a1-4)Glc
# Outline: as §1
# Glc(a1-6)Glc(a1-6)Glc = molecular target: Glc(a1-6)Glc(a1-6)Glc
# Outline: as §1
# [6] = molecular target: Glc(a1-6)Glc(a1-6)Glc(a1-6)Glc
# Outline: as §1
# Glc(b1-4)Glc = molecular target: Glc(b1-4)Glc
# Outline: as §1
# Glc(b1-6)Glc = molecular target: Glc(b1-6)Glc
# Outline: as §1
# GlcA(b1-3)Gal = molecular target: GlcA(b1-3)Gal
# Outline: as §1
# GlcA(b1-3)GlcNAc = molecular target: GlcA(b1-3)GlcNAc
# Outline: as §1
# GlcA(b1-6)Gal = molecular target: GlcA(b1-6)Gal
# Outline: as §1
# [7] = molecular target: GlcA3S(b1-3)Gal(b1-4)GlcNAc(b1-2)Man
# Outline: as §1
# [8] = molecular target: GlcA3S(b1-3)Gal(b1-4)GlcNAc(b1-3)Gal(b1-4)Glc
# Outline: as §1
# [9] = molecular target: GlcNAc(a1-3)Gal(b1-4)GlcNAc
# Outline: as §1
# [10] = molecular target: GlcNAc(a1-4)Gal(b1-3)GlcNAc
# Outline: as §1
# [11] = molecular target: GlcNAc(a1-4)Gal(b1-4)GalNAc
# Outline: as §1
# [12] = molecular target: GlcNAc(a1-4)Gal(b1-4)GlcNAc
# Outline: as §1
# [13] = molecular target: GlcNAc(a1-4)Gal(b1-4)GlcNAc(b1-3)Gal(b1-4)Glc
# Outline: as §1
# [14] = molecular target: GlcNAc(a1-4)Gal(b1-4)GlcNAc(b1-3)Gal(b1-4)GlcNAc
# Outline: as §1
# [15] = molecular target: GlcNAc(a1-4)Gal(b1-4)GlcNAc(b1-3)Gal(b1-4)GlcNAc(b1-3)Gal(b1-4)GlcNAc
# Outline: as §1
# [16] = molecular target: GlcNAc(a1-4)Gal(b1-4)GlcNAc(b1-3)Gal(b1-4)[Fuc(a1-3)]GlcNAc(b1-3)Gal(b1-4)[Fuc(a1-3)]GlcNAc
# Outline: as §1
binder,measurement,setting,value
B1,glycan array binding signal (z-score),GalNAc(b1-4)GlcNAc,-0.33
same,glycan array binding signal (z-score),[1],-0.333
same,glycan array binding signal (z-score),[2],-0.322
same,glycan array binding signal (z-score),[3],-0.322
same,glycan array binding signal (z-score),GalNAc(b1-4)GlcNAc6S,-0.324
same,glycan array binding signal (z-score),GalNAc(b1-6)GalNAc,-0.336
same,glycan array binding signal (z-score),GalNAc3S(b1-4)GlcNAc,-0.329
same,glycan array binding signal (z-score),GalNAc3S(b1-4)GlcNAc3S,-0.335
same,glycan array binding signal (z-score),[4],-0.322
same,glycan array binding signal (z-score),GalNAc4S6S(b1-4)GlcNAc,-0.33
same,glycan array binding signal (z-score),GalNAc6S(b1-4)GlcNAc,-0.342
same,glycan array binding signal (z-score),Glc(a1-4)Glc,-0.341
same,glycan array binding signal (z-score),[5],-0.338
same,glycan array binding signal (z-score),Glc(a1-6)Glc(a1-6)Glc,-0.343
same,glycan array binding signal (z-score),[6],-0.334
same,glycan array binding signal (z-score),Glc(b1-4)Glc,-0.337
same,glycan array binding signal (z-score),Glc(b1-6)Glc,-0.325
same,glycan array binding signal (z-score),GlcA(b1-3)Gal,-0.33
same,glycan array binding signal (z-score),GlcA(b1-3)GlcNAc,-0.318
same,glycan array binding signal (z-score),GlcA(b1-6)Gal,-0.337
same,glycan array binding signal (z-score),[7],-0.307
same,glycan array binding signal (z-score),[8],-0.304
same,glycan array binding signal (z-score),[9],1.33
same,glycan array binding signal (z-score),[10],-0.332
same,glycan array binding signal (z-score),[11],-0.336
same,glycan array binding signal (z-score),[12],-0.339
same,glycan array binding signal (z-score),[13],-0.342
same,glycan array binding signal (z-score),[14],-0.333
same,glycan array binding signal (z-score),[15],-0.328
same,glycan array binding signal (z-score),[16],-0.319
